The values that follow come from PubChem BioAssay AID1745853 (National Center for Advancing Translational Sciences (NCATS), 2022).

Assay in all cases: Primary Screen for Target Class Profiling of Small Molecule Inhibitors of Methyltransferases
Assay [1] deals with Glycine N-methyltransferase (Homo sapiens) (UniProt Q14749). As to conditions: purified enzyme, MTase-Glo SAH luminescence; measured here: GNMT inhibition; at 40 µM; stronger effect = lower value. An outline of the steps:
(§1)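 Each enzyme was assayed with SAM and its substrate. SAH formation detected by MTase-Glo luminescence; single-point 40 uM screen[…].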

Assay [2] addresses Guanidinoacetate N-methyltransferase (Homo sapiens) (UniProt Q14353). As to conditions: purified enzyme, MTase-Glo SAH luminescence; measured here: GAMT inhibition; at 40 µM; stronger effect = lower value. An outline of the steps:
as §1

Assay [3] deals with Histamine N-methyltransferase (Homo sapiens) (UniProt P50135). As to conditions: purified enzyme, MTase-Glo SAH luminescence; measured here: HNMT inhibition; at 40 µM; stronger effect = lower value. An outline of the steps: as §1
The target in assay [4] is Nicotinamide N-methyltransferase (Homo sapiens) (UniProt P40261). As to conditions: purified enzyme, MTase-Glo SAH luminescence; measured here: NNMT inhibition; at 40 µM; stronger effect = lower value. An outline of the steps:
as §1

Assay [5] deals with Phenylethanolamine N-methyltransferase (Homo sapiens) (UniProt P11086). As to conditions: purified enzyme, MTase-Glo SAH luminescence; measured here: PNMT inhibition; at 40 µM; stronger effect = lower value. An outline of the steps: as §1

SMILES strings stand for the structures. This is one part of the list. Shown are side measurements of this screen, not its main read-out; they come without a call.
% is set by controls: 0 for no effect and ±100 for the full control effect.

Consider `CCCn1c(=O)c2ccc(C(=O)NC(C)C)cc2n2c(=O)n(CC(N)=O)nc12`, for which the activity change, negative = inhibition was found to be 3.92% in assay [1]; 0% in assay [2]; 2.48% in assay [3]; 4.36% in assay [4]; 2.09% in assay [5].

Regarding `Cc1cccc(-c2nnn3c2nc(NC2CCCC2)c2ccccc23)c1`, the activity change, negative = inhibition was -4.14% in assay [1]; 0% in assay [2]; 1.69% in assay [3]; -6.5% in assay [4]; -5.81% in assay [5].

Turning to `CC1CCC(NC(=O)C2(C)Cn3c(nc4ccccc43)C(=O)N2Cc2cccc(Cl)c2)CC1` (stereo not given), the activity change, negative = inhibition is 2.85% in assay [1]; 0% in assay [2]; 0.866% in assay [3]; -4.62% in assay [4]; -3.49% in assay [5].

Take `CC[n+]1c(/C=C/C=C2/N(C)c3ccccc3C2(C)C)sc2ccccc21`: the activity change, negative = inhibition in assay [1] was -61.4%; in assay [2], -47.9%; in assay [3] it was -72.8%; in assay [4] it was -75.6%; in assay [5], -54%.

For `CCc1ccc(C(=O)NC(Cc2c[nH]c3ccccc23)C(=O)OCC(=O)c2ccc(C)cc2)cc1` (stereo not given), the activity change, negative = inhibition in assay [1] came to 12.6%; in assay [2], 0%; in assay [3] it was 9.9%; in assay [4], 1.68%; in assay [5] it was 3.98%.

For the compound `COc1cccc([S+](=O)([O-])N2CC(N3CCc4ccccc43)C2)c1`, the activity change, negative = inhibition in assay [1] was -5.99%; in assay [2] it was 1.02%; in assay [3], -0.211%; in assay [4], -4.34%; in assay [5], -0.372%.

With `Cc1ccc(CNC(=O)c2ncn3c2C(=O)N(C2CC2)C(C)(C(=O)NC2CCCC2)C3)cc1` (stereo not given), the activity change, negative = inhibition in assay [1] was -10.1%; in assay [2], -1.06%; in assay [3], -10.5%; in assay [4], -11.2%; in assay [5] it was -7.74%.

Regarding `CCNC(=O)[C@@H]1C[C@H](N)CN1C(=O)C(C)(C)Oc1ccc(C)cc1`, the activity change, negative = inhibition in assay [1] is 0.965%; in assay [2], -2.57%; in assay [3] it was 1.67%; in assay [4], 2.47%; in assay [5], 1.2%.

For `CS(=O)(=O)N1CCC(NC(=O)c2[nH]ncc2NC(=O)c2c(Cl)cccc2Cl)CC1`, the activity change, negative = inhibition in assay [1] is -6.6%; in assay [2], -8.08%; in assay [3], 3.36%; in assay [4], -25.8%; in assay [5], 1.13%.

For `C=C1CC2(C(=O)O)CC1CCC2C1(C)CCCC2(C)C(=O)OC(O)C21` (stereo not given), the activity change, negative = inhibition in assay [1] is 2.74%; in assay [2], 7.19%; in assay [3], 7.74%; in assay [4], -9.37%; in assay [5], 3.78%.

For the compound `COc1cccc(Cn2nc3n(Cc4ccccc4)c(=O)c4ccc(C(=O)NC(C)C)cc4n3c2=O)c1`, the activity change, negative = inhibition is 7.21% in assay [1]; 1.23% in assay [2]; 7.4% in assay [3]; 6.21% in assay [4]; 7.13% in assay [5].

For the compound `COC[C@H]1C[C@@H](NC2CCN(C(C)=O)CC2)[C@H](O)[C@@H]1O`, the activity change, negative = inhibition in assay [1] was -2.18%; in assay [2], -1.94%; in assay [3], -2.3%; in assay [4], -4.74%; in assay [5], -12.4%.

Take `CCC(C)NC(=O)c1ccc2c(=O)n(CC(C)C)c3nn(CC(=O)c4ccc(C)cc4)c(=O)n3c2c1` (stereo not given): the activity change, negative = inhibition in assay [1] is 1.79%; in assay [2], 0%; in assay [3], 6.96%; in assay [4], -5.69%; in assay [5] it was -1.44%.

Regarding `COc1ccc([C@@H]2N[C@H](C(=O)O)Cc3c2[nH]c2ccccc32)cc1CN1CCN(c2ccccc2F)CC1`, the activity change, negative = inhibition is -11.9% in assay [1]; -3.18% in assay [2]; -21.1% in assay [3]; -24.9% in assay [4]; -10.3% in assay [5].

As for `CSc1cccc(N2C(=O)c3cc(-c4ccco4)nn3CC2(C)C(=O)NC2CCCCCC2)c1` (stereo not given), the activity change, negative = inhibition in assay [1] was -1.78%; in assay [2], 2.51%; in assay [3], -6.51%; in assay [4] it was -1.74%; in assay [5], -5.99%.

`CC(C)OCCCn1c(=O)c2ccccc2n2c(=O)n(CC(=O)NC3CCCCC3)nc12`: the activity change, negative = inhibition in assay [1] worked out at 4.08%; in assay [2], 1.92%; in assay [3], 10%; in assay [4], 3.76%; in assay [5], 6.3%.
